Results as given in PubChem BioAssay AID1963576 (National Center for Advancing Translational Sciences (NCATS), 2024).
The campaign covered roughly 46,000 compounds. About 60 (0.1%) were called active. Not shown: some 3% with an inconclusive outcome. The call rests on the fitted dose curve; in most records, active means well fitted inhibition curve with a large enough effect; inconclusive means small, poorly fitted or top-dose-only effect; inactive means no such curve, though single readings can be large or run the other way. The list shows a part of the results.

Assay: Primary qHTS assay for Inhibitors of ovarian cancer metastasis using an organotypic tumor microenvironment (TME) model. Further: nearly all actives have a fitted effect of over 65% in size.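 On activity change, negative = inhibition: plate controls were DMSO wells for no effect and tomatine positive control wells for full effect.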
Conditions: SKOV3ip1-GFP adhesion/invasion on 3D omental model, fluorescence; series mostly up to 45.8 µM; activity change, negative = inhibition: at the top concentration
In short: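 A 3D layer of primary human omental fibroblasts, mesothelial cells, fibronectin and collagen I, grown 48 hr, received SKOV3ip1-GFP cells in serum-free medium plus compounds at 0.36-46 umol/L. After 2 hr RT and 16 hr 37 C, fixed adherent GFP cells were counted; normalized to DMSO and tomatine.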

Activity change, negative = inhibition, inactive:
O=C(CCSCc1ccccc1Cl)NCCc1ccccc1 5.36%, CCOc1ccc(-c2c(C)nn3c(C)c(C(=O)NC(C)c4ccccc4)cnc23)cc1OCC (configuration not stated) -13.1%, CCCn1cc(S(=O)(=O)c2ccc(OCC)cc2)c(=O)c2cc(C)ccc21 -13.5%, CN(CC(=O)N(Cc1ccc(C2CCCCC2)cc1)c1ccc(C(=O)O)c(O)c1)S(=O)(=O)c1c(F)c(F)c(F)c(F)c1F 23.3%, CCOC(=O)c1cc2c(=O)n3ccccc3nc2n(CC2CCCO2)c1=NC(=O)c1ccc(OCC)cc1 (configuration not stated) -1.57%, COc1ccc(CNc2nc(-c3ccccc3)nn2C(=O)c2ccccc2OC)cc1 38.9%, COc1cc(Cl)c(S(=O)(=O)N2CCN(c3c(C)cccc3C)CC2)cc1Cl 28.8%, Cc1cc(C)c(NC(=O)c2cc(S(=O)(=O)N3CCCC3)cn2C)c(C)c1 0.175%, COc1ccc(N2CCN(CCCNC(=O)c3sc4ncccc4c3-n3cccc3)CC2)cc1 -22%, CC(C)OCCCNC(=O)Cn1c(-c2cccs2)cc2cc(F)ccc21 -5.85%, COc1cc2nc(NCCc3ccc(Cl)cc3)n3nc(-c4ccccc4)nc3c2cc1OC -5.11%, CCOc1cc(C(=O)N2CC(=O)Nc3ccc(F)cc3C2c2ccccc2)cc(OCC)c1OCC (configuration not stated) 18.5%, CCOc1cc(-c2cc(C(=O)O)c3c(-c4ccccc4)[nH]nc3n2)ccc1O -0.0991%, COc1ccc(S(=O)(=O)NCC(c2ccco2)S(=O)(=O)c2cccs2)cc1OC (configuration not stated) 5.98%, COc1cc(C(=O)OCc2cc(=O)n3ccsc3n2)cc(OC)c1OC -8.5%, COc1ccc(NC(=O)Cn2nc(C)c3c(C)n(-c4ccccc4)nc3c2=O)cc1OC 0.317%, CCN(C(=O)c1nn(C)c2c1CSc1ccccc1-2)c1cccc(C)c1 -0.334%, CCN1C(=O)C(Cc2nc3ccccc3c(=O)n2-c2ccc(OC)cc2)c2cc(C)ccc21 (configuration not stated) -1.27%, N#Cc1cccc(NC(=O)Cn2nc(Cc3ccncc3)c3ccccc3c2=O)c1 -7.98%, O=C(COc1ccccc1)NCCc1csc(-c2cccc(F)c2)n1 -9.75%, COC(=O)c1cccc(Cn2nnc3sc4c(c3c2=O)CCC(C(C)(C)C)C4)c1 (configuration not stated) 14%, Cc1ccc(C)c(Nc2nc(-c3ccccc3)c3cc(Br)ccc3n2)c1 -5.63%, CCN(CC)CCNC(=O)C(=O)NCC(c1cccnc1)N1CCN(c2ccccc2)CC1 (configuration not stated) 20.8%, Cc1cccc(C(=O)Nc2cccc(OCc3cc(=O)n4cccc(C)c4n3)c2)c1 1.11%, Cc1cccc(N(C)C(CNS(=O)(=O)c2ccccc2)c2ccccc2)c1 (configuration not stated) -2.87%, O=C(Nc1cccc(Cl)c1)c1cc(-c2ccc3c(c2)OCCO3)on1 -3.73%, CC(C)(C)OC(=O)N1CCC(c2c(C(=O)NC3CCCCC3)cnn2-c2cccc(F)c2)CC1 1.19%, O=C(CSc1ccccc1)NCc1ccc2c(c1)CCN2C(=O)c1ccc(Cl)cc1 7.82%, Cc1cc(Sc2ccc(Cl)cc2)nc2ccccc12 -5.18%, O=C(COc1ccccc1)NCc1ccc2c(c1)CCN2C(=O)c1ccccc1 -22.7%, Cc1cccc(C(=O)Nc2cccc(C(=O)OCc3cc(=O)n4nc(C(C)C)sc4n3)c2)c1 29.6%, CC(NC(=O)c1ccc(NC(=O)c2nsc3ccccc23)cc1)c1ccccc1 (configuration not stated) -24.2%, Cn1nnnc1SCCNCc1ccc(OCc2ccccc2Cl)cc1 -10.6%, CC(=O)c1cccc(NC(=O)c2c(-c3ccccc3)c(-c3ccccc3)nn(C)c2=O)c1 -0.914%, Cc1ccccc1Nc1c(-c2cccc(N(C)C)c2)nc2ccc(Br)cn12 0.927%, CC(C)C1C(=O)Nc2ccc(S(=O)(=O)NCc3ccc(Cl)cc3)cc21 (configuration not stated) -15.8%, COc1ccc(C2C(C(N)=O)=C(C)Nc3nc(CCCO)nn32)cc1 (configuration not stated) 3.67%, Cc1ccc(CCNC(=O)c2cc(Nc3ccc(C)c(C)c3)nc3ccccc23)cc1 -2.32%, Cc1ccc(NC(=O)CSc2c3c(nc4ccccc24)CCCC3)cc1F -22.6%, COc1ccc(-n2nc(C(=O)Nc3ccc(Cl)cn3)c3c4ccccc4n(C)c3c2=O)cc1Cl 21.7%, COC(=O)c1c(NC(=O)Cc2coc3ccc(C)cc23)sc2c1CCC2 4.96%, COc1ccc(CCN2C(=O)c3[nH]nc(-c4ccccc4O)c3C2c2cccc(OC)c2)cc1 (configuration not stated) -30.9%, Cc1cc(=O)n(CC(=O)Nc2ccc([N+](=O)[O-])cc2)c(-n2nc(C)cc2C)n1 8.47%, Cc1cc(C(F)(F)F)nn1-c1nc(-c2ccccc2)cc(C(F)(F)F)n1 9.9%, CCOC(=O)c1ccc(NC(=O)CC2C(=O)N(c3ccc(C)cc3)C(=O)N2C2CCCCC2)cc1 (configuration not stated) -4.6%, CCc1nn(CC(=O)NC(C)CC)c(=O)c2cc3c(OC)cccc3n12 (configuration not stated) 6.02%, CCOC(=O)c1ccccc1NS(=O)(=O)c1ccc(N2CCCCS2(=O)=O)cc1 0.615%, COc1cc(NC(=O)c2nn(-c3ccc(C)cc3)c(=O)c3c2c2ccccc2n3C)cc(OC)c1OC 2.39%, CN1CCN(c2oc(/C=C/c3ccc(F)cc3)nc2C#N)CC1 0.927%, Cc1cccc(-n2c(SCc3nc(-c4ccccc4C)no3)nnc2-c2ccccc2)c1 2.75%, COc1cc(C)ccc1OCCCn1c(-c2ccc(Cl)cc2)nc2ccccc2c1=O -3.82%, Cc1cccn2c(=O)c(C(=O)NCc3ccccc3Cl)c(O)nc12 -26.7%

outcome, inactive:
Cc1c(-c2cccc(NC(=O)Cc3ccccc3)c2)nc2ncccn12, CCCCC(=O)Nc1cc(-c2cn3cccnc3n2)ccc1C, CN(Cc1ccccc1)C(=O)c1c[nH]c2ccc(S(=O)(=O)Nc3ccccc3F)cc2c1=O, Cc1ccc(OCCSc2nc3ccccc3n2CC(=O)N2CCOCC2)cc1C, COc1ccc(CCNC(=O)CCCCn2c(=O)c3ccccc3n(CC(=O)Nc3ccc(C)cc3C)c2=O)cc1OC, Cc1ccc(N(C)S(=O)(=O)c2ccc3[nH]c4c(c3c2)CCCC4)cc1, O=C(c1ccccc1Cl)N(Cc1ccco1)Cc1ccco1, CN(Cc1ccccc1)c1ccc(-c2nc(-c3ccco3)no2)cc1[N+](=O)[O-], Cc1[nH]c2ccccc2c1C(c1ccccc1)c1cccs1 (configuration not stated), Cc1ccccc1NC(=O)Cn1c(=O)n(CCc2ccccc2)c(=O)c2sc3ccccc3c21
